“And” between values parts separate entries of the source, which are not always exact repeats. Equal values may be shown once. Out of some 190,000 compounds screened, about 400 (0.21%) were called active. Inconclusive means that the source gave no clear call. Such entries were picked first, then a sample of the others.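 The calls were made as follows: active = percent activity GTP binding at least 20 points away from the 100% baseline, either down as inhibitor or up as activator; inconclusive = compound flagged as likely green fluorescent from well-wide comparison; inactive = the rest.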
Target: Cell division control protein 42 homolog (Homo sapiens) (UniProt P60953)
Assay: wildtype Cdc42 fluorescent GTP binding changes, either direction – biochemical, multiplex bead flow cytometry, Bodipy-GTP, primary screen (AID 761);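 also: median bead fluorescence of bound Bodipy-FL-GTP at 100 nM; 0% = excess unlabeled GTP control and 100% = no compound control; below 100% means less GTP binding so inhibitor and above means activator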
Details: GST-Cdc42 beads, at 10 µM, actives lie on both sides

Sequence of UniProt P60953 (P60953 whole entry, looked up): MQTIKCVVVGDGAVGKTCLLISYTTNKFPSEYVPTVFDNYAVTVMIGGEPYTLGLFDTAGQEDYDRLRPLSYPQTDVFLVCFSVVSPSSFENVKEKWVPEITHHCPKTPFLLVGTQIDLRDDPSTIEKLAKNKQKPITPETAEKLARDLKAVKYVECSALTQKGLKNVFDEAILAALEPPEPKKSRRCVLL

Row | Structure (SMILES) | percent activity (GTP binding)
1 | NC1=NC(=O)/C(=C\c2ccc(O)c([N+](=O)[O-])c2)S1 | active: 61%
2 | O=C(O)Cc1coc2cc3c(cc12)CCC3 | inactive: 91%
3 | Cc1cc(C)n2nc(C(=O)N(C)C(c3ccccc3)c3ccccc3)nc2n1 | inconclusive: 92%
4 | COC(=O)CCC(=O)Nc1cccc([N+](=O)[O-])c1 | inconclusive: 94%
5 | O=C(O)C1CSC(CCc2ccccc2)N1 (configuration not stated) | inactive: 114%
6 | CC1=NNC(=O)C1C(c1ccccc1)C(C#N)C#N (configuration not stated) | inconclusive: 96%
7 | COc1ccc(-c2cn(-c3ccccc3)c3[n+]2CCS3)cc1 | inactive: 102% and inactive: 104%
8 | Cc1ccccc1NC(=O)CSc1nnc(-c2ccccc2)n1-c1ccccc1 | inconclusive: 107%
9 | COc1ccc(NC(=O)CSC2CC(=O)N(c3ccc4c(c3)OCCO4)C2=O)cc1 (configuration not stated) | inconclusive: 107%
10 | CC(=O)Oc1ccc2nc(CN3C(=O)c4ccc([N+](=O)[O-])cc4C3=O)oc(=O)c2c1 | inconclusive: 88%
11 | CN(Cc1ccccc1)c1nc(N)c([N+](=O)[O-])c(Nc2cccc(F)c2)n1 | inactive: 101%
12 | COc1ccc(CC(=O)OCc2nnc(-c3ccccc3)o2)cc1 | inactive: 85%
13 | CC(C)Oc1ccc(C(=O)N2CCCC2C(=O)O)cc1 (configuration not stated) | inconclusive: 116%
14 | C=CCN1C(=O)C2C3CC(=O)C(c4ccccc43)C2C1=O (configuration not stated) | inactive: 95%
15 | CSc1ncccc1C(=O)NC(C)C1CC2CCC1C2 (configuration not stated) | inactive: 95%
16 | CCOC(=O)/C(C#N)=C/C1=C(N2CCCC2)CC(C)(CC)OC1 (configuration not stated) | inactive: 101%
17 | O=c1[nH]c(SCc2cccc(Cl)c2)nc2ccccc12 | inconclusive: 95%
18 | COc1ccccc1N1CCN(S(=O)(=O)c2cn(C)c(=O)n(C)c2=O)CC1 | inconclusive: 103%
19 | O=C(NCC(c1cccnc1)N1CCN(c2ccc(F)cc2)CC1)c1ccco1 (configuration not stated) | inactive: 95%
20 | O=Cc1ccc2oc3nc4n(c(=O)c3c(=O)c2c1)CCCS4 | inconclusive: 89%
21 | O=C(Nc1ccc(N2CCN(C(=O)c3ccccc3F)CC2)cc1)c1ncn[nH]1 | inactive: 101%
22 | COC(=O)C1CCN(CC(=O)Nc2sc3c(c2C#N)CCC3)CC1 | inconclusive: 91%
23 | Cc1cccc(N=c2c([N+](=O)[O-])nn(-c3ccc(Cl)cc3)n2O)c1 | inconclusive: 96%

Row | Structure (SMILES) | percent activity (GTP binding)
24 | COC(=O)C1=C(O)CSC1=Nc1cccc(C(F)(F)F)c1 | inconclusive: 106%
25 | CCCCCn1c(N2CCOCC2)nc2c1c(=O)n(CC(N)=O)c(=O)n2C | inactive: 110%
26 | CCC(=O)Nc1nc(-c2ccc3c(c2)OCCO3)cs1 | inactive: 103%
27 | Cc1cc(C)cc(-n2cc(C(=O)O)c(=O)cc2C)c1 | inactive: 97%
28 | COc1ccc(CCNC(=O)[C@@H](NC(N)=O)C(C)C)cc1 | inconclusive: 89%
29 | COc1ccc(Cl)c2c1[nH]c1nc(SCc3ccccn3)nnc12 | inconclusive: 89%
30 | CC(C)CC(C(=O)NC1CCCC1)N(Cc1ccc2c(c1)OCO2)C(=O)c1snc(C(N)=O)c1N (configuration not stated) | inconclusive: 94%
31 | COc1ccccc1CNC(=O)c1cc2c(C)nn(Cc3ccc(F)cc3)c2s1 | inconclusive: 109%
32 | O=c1[nH]c2cc([N+](=O)[O-])c([N+](=O)[O-])cc2[nH]c1=O | inconclusive: 86%
33 | COc1ccc(S(=O)(=O)N(C)C)cc1NC(=O)Cc1cccs1 | inactive: 102%
34 | COc1ccc(CC(=O)NNS(=O)(=O)c2ccc(F)cc2)cc1OC | inconclusive: 94%
35 | CS(=O)(=O)N(CC(=O)N1CCN(c2ccccc2)CC1)c1ccc(Cl)c(C(F)(F)F)c1 | inactive: 99%
36 | C=C1CSc2nc(=O)c3c4c(sc3n21)CCCC4 | inconclusive: 89%
37 | C[N+]1(C2CCC3CCCC2C3O)CCCCC1 (configuration not stated) | inconclusive: 93%
38 | Cc1ccc(Sc2cc(Cl)nc(N)n2)cc1 | inactive: 94%
39 | Cc1cccc(-n2c(C)cc(/C=N/NC(=O)c3ccc(CN4CCOCC4)cc3)c2C)c1 | inconclusive: 94%
40 | Cc1cc(C)cc(Nc2cc(C)nc3nc(C)nn23)c1 | inconclusive: 103%
41 | O=S(=O)(O)c1nc2ccccc2n1Cc1ccc(Cl)cc1Cl | inconclusive: 93%
42 | COc1ccc(C(=O)Nc2cc3c(cc2C#N)OCO3)cc1S(=O)(=O)NCc1ccco1 | inconclusive: 107%
43 | CS(=O)(=O)N(Cc1ccccc1)c1ccc(C(=O)Nc2cccnc2)cc1 | inactive: 102%
44 | Cc1ccc(NC(=O)CS(=O)(=O)c2c[nH]c3ccccc23)c(C)c1 | inconclusive: 571%
45 | CCCC(=O)Nc1ccc2c(c1)nc(CCNC(=O)c1ccccc1)n2C | inconclusive: 102%
46 | CS(=O)(=O)N1CCC(C(=O)NCc2ccc(F)cc2)CC1 | inactive: 99%

Row | Structure (SMILES) | percent activity (GTP binding)
47 | Cc1ccc(C(=O)NNC(=O)CSc2nnc3c(n2)[nH]c2ccc(C)cc23)cc1 | inconclusive: 89%
48 | O=C(C[n+]1ccccc1)Nc1cc(C(F)(F)F)ccc1Cl | inconclusive: 105%
49 | Cc1ccc(CS(=O)(=O)c2ccccc2-c2nnc(-c3ccc(Cl)cc3)o2)cc1 | inactive: 93%
50 | COc1cccc(-c2n[nH]c3c2CCC3)c1 | inconclusive: 96%
51 | CCCC1=NN(C(=O)Cc2ccc([N+](=O)[O-])cc2)C(O)(C(F)(F)F)C1 (configuration not stated) | inactive: 97%
52 | Cc1ccc(/C=N/N(C)C2=NS(=O)(=O)c3ccccc32)o1 | active: 64%
53 | Cc1ccc(N2C(=O)c3cccc4c(N5CCN(C)CC5)ccc(c34)C2=O)c2cccnc12 | inconclusive: 103%
54 | CCC(C)(C)n1nnnc1C(c1cc2cccc(C)c2[nH]c1=O)N1CCCC1 (configuration not stated) | inconclusive: 108%
55 | CCOc1cc(/C=N/Nc2nc(-c3cccc(S(=O)(=O)N4CCCC4)c3)cs2)ccc1O | inconclusive: 86%
56 | Cc1nc(NC(=O)c2cccs2)ccc1Br | inactive: 95%
57 | COc1cccc(NC(=S)NCc2ccc3c(c2)cc(C)n3C)c1 | inconclusive: 91%
58 | CC1CC(C)CN(C(=O)COc2ccc([N+](=O)[O-])cc2Cl)C1 (configuration not stated) | inactive: 97%
59 | COc1ccc(-n2nc(C(=O)Nc3cc(OC)c(OC)c(OC)c3)c3ccccc3c2=O)c(OC)c1 | inconclusive: 94%
60 | CN(C)c1ccc(/C=C2\SC(=S)N(Nc3ncc(C(F)(F)F)cc3Cl)C2=O)cc1 | inconclusive: 127%
61 | Nc1nonc1C(=O)N/N=C/c1ccc(-c2ccc(Cl)c(C(=O)O)c2)o1 | inconclusive: 91%
62 | CCN(C(=O)Cc1ccc(Br)cc1)C1CCCCC1 | inconclusive: 91%
63 | CCC(=O)NCCCCCCNC(=O)CC | inconclusive: 102%
64 | O=C(CSc1nc2scc(-c3ccccc3)c2c(=O)[nH]1)NC1CCCCC1 | inactive: 89%
65 | COc1ccc(/C=C2\SC(=S)N(CCCC(=O)NNC(=O)c3ccccc3O)C2=O)cc1 | active: 78%
66 | COc1ccc(C(=O)c2ccc([N+](=O)[O-])cc2Cl)cc1 | inconclusive: 91%
67 | Cc1ccc(C)c(-n2c3nc(=O)[nH]c(=O)c-3cc3cc([N+](=O)[O-])ccc32)c1 | inconclusive: 93%
68 | COc1ccc(CCNC(=O)C2CCCN2C(=O)NC2CCCCC2)cc1OC (configuration not stated) | active: 141% [activator]
69 | CC(=O)N1C(=O)/C(=C2\SC(=S)N(NC(=O)c3ccc(O)cc3)C2=O)c2ccccc21 | inconclusive: 71%

Row | Structure (SMILES) | percent activity (GTP binding)
70 | COC(=O)c1ccc(N=NNc2cccc(Br)c2)cc1 | inactive: 93%
71 | Cc1cc(NC(=S)N(Cc2ccc(Br)cc2)Cc2ccc(C(=O)O)cc2)ccc1Cl | inactive: 96%
72 | C#CCn1cc(/C=N/NC(=O)COc2cccc3cccnc23)c2ccccc21 | inconclusive: 102%
73 | Cc1nc2ccc3nc(NC(=O)c4ccc5c(c4)OCCO5)sc3c2s1 | inconclusive: 111%
74 | C/C(=N\NC(=O)c1c[nH]c2ccccc12)c1ccccn1 | inconclusive: 82%
75 | Cc1cc(C(=O)CSc2nnc(-c3ccccc3)o2)c(C)n1CC1COc2ccccc2O1 (configuration not stated) | inconclusive: 86%
76 | CC1(C)OC(=O)C(=Cc2ccc(-c3ccc(S(N)(=O)=O)cc3)o2)C(=O)O1 | inactive: 92%
77 | O=C(NNC(=O)C1CCCN(c2ncccn2)C1)c1ccncc1 (configuration not stated) | inactive: 102%
78 | COc1ccc(CCc2nnc(CCC(=O)NCc3ccc4ncccc4c3)o2)cc1 | inactive: 95%
79 | CCOc1cc(C(=O)NCc2ccc(C)cc2)ccc1OCC(=O)N1CCOCC1 | inconclusive: 90%
80 | c1ccc(-c2nnc3n2N=C(c2ccc4c(c2)OCO4)CS3)nc1 | inconclusive: 90%
81 | O=c1c2[nH]c3ccc(F)cc3c2ncn1C1CCCCC1 | inactive: 103%
82 | O=C(NCc1ccc2c(c1)OCO2)c1ccc2c(c1)C(=O)N(CC1CCCO1)C2=O (configuration not stated) | inconclusive: 90%
83 | O=C(/C=C\c1cccs1)N1CCN(Cc2ccc3c(c2)OCO3)CC1 | inactive: 102%
84 | O=c1c2cccnc2n(-c2ccccc2)n1Cc1ccc(Cl)cc1 | inconclusive: 96%
85 | CN(Cc1cnn(-c2ccc(F)cc2)c1)Cc1nc(Cc2ccccc2)no1 | inconclusive: 93%
86 | Cc1cc(C(=O)NCC(C)C)c2ccccc2n1 | inconclusive: 104%
87 | N#Cc1c(N)nc2c(c1N)CC(CCl)O2 (configuration not stated) | inconclusive: 92%
88 | CCn1cc(CNC(=S)Nc2cccc3ccccc23)cn1 | inactive: 101%
89 | CCOC(=O)c1cc(C(=O)NC(C)c2ccccc2)c(C)[nH]c1=O (configuration not stated) | inactive: 96%
90 | Cc1ccccc1-n1nc(C)c2cc(C(=O)NCc3cccnc3)sc21 | inconclusive: 105%
91 | CC1CCCCC1NC(=O)COC(=O)c1ccccn1 (configuration not stated) | inconclusive: 106%
92 | CCOC(=O)C1CCCN(Cc2cc(Br)c(OC)cc2OC)C1 (configuration not stated) | inactive: 97%

Reference: PubChem BioAssay AID761 (NMMLSC, 2007)
